{
  "source": "PubChem BioAssay AID485294",
  "about": "(National Center for Advancing Translational Sciences (NCATS), 2010)",
  "note": "Several values for one entry are separate records, joined by “and”; a condition that tells them apart may be missing. Equal values may be shown once. Screen size: about 370,000 compounds; about 150 (0.041%) were called active. Inconclusive means that the source gave no clear call. Such entries were picked first, then a sample of the others. Calls come from the whole dose curve; as a rule, active = well fitted inhibition curve with a large enough effect; inconclusive = small, poorly fitted or top-dose-only effect; inactive = flat fitted curve, though single readings scatter. Potencies beside an inconclusive call are fits to weak or partial responses and may not hold up. Potency is the fitted concentration of half-maximal effect; tags give direction and shape of the fitted curve.",
  "data": [
    {"molecular_target": "Beta-lactamase (Escherichia coli (strain K12)) (UniProt P00811)", "sequence (P00811 whole entry, looked up)": "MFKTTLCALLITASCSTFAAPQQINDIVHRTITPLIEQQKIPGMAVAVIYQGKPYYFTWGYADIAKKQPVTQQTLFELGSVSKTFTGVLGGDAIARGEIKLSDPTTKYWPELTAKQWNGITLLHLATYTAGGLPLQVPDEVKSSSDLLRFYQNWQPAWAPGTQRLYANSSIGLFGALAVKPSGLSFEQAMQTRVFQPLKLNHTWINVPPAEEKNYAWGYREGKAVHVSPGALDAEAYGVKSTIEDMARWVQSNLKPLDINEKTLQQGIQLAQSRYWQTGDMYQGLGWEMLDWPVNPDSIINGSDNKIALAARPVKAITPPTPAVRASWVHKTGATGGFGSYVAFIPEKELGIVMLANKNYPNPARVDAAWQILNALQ", "assay": "qHTS Inhibitors of AmpC Beta-Lactamase (assay with detergent); note: nearly all actives have a fitted effect of over 25% in size", "details": "AmpC hydrolysis of nitrocefin, absorbance 480 nm, 0.01% Triton; series mostly up to 114 µM", "outline": "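AmpC (5.3 nM in the dispensed reagent) in 20 mM phosphate pH 7.0 with 0.01% (detergent screen) or 0.0001% Triton X-100 was preincubated with compounds for 15 min at room temperature. Nitrocefin was then added from an 800 uM solution, and hydrolysis was followed at 480 nm.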", "values": [
      {"compound": "O=C(C1CCN(S(=O)(=O)Cc2ccccc2)CC1)N1CCN(c2cccc(Cl)c2)CC1", "Potency": "inactive"},
      {"compound": "CC(=O)Nc1ccc(NC(=O)C2CCN(S(=O)(=O)c3ccc4c(c3)OCCO4)CC2)cc1", "Potency": "inconclusive: 100 µM [inhibitor, partial curve, poor fit]"},
      {"compound": "Cc1[nH]c2ccccc2c1C(=O)COC(=O)C1CCC1", "Potency": "inconclusive: 1 µM [inhibitor, full curve]"},
      {"compound": "COCCCn1c(N)c(C(=O)OC(C)COC)c2nc3ccccc3nc21", "note": "(centres undefined)", "Potency": "inconclusive: 0.631 µM [inhibitor, full curve, poor fit]"},
      {"compound": "O=C(Nc1cc(Cl)cc(Cl)c1)c1ccc(Cn2c(=O)[nH]c3ccsc3c2=O)cc1", "Potency": "inconclusive: 100 µM [inhibitor, partial curve, poor fit]"},
      {"compound": "CCc1ccc(S(=O)(=O)Nc2ccccn2)cc1", "Potency": "inconclusive: 112 µM [inhibitor, partial curve, poor fit]"},
      {"compound": "CCOC(=O)c1cc(NC(=O)Nc2cc(C)ccn2)c(C)nc1C", "Potency": "inconclusive: 25.1 µM [inhibitor, full curve, poor fit]"},
      {"compound": "COc1cc(C(=O)NCCNc2nc3ccc(C)cc3cc2C#N)cc(OC)c1OC", "Potency": "inconclusive: 112 µM [inhibitor, partial curve, poor fit]"},
      {"compound": "Cc1ccc(-c2nn(-c3ccc(F)cc3)cc2C(=O)N(C)CC(=O)Nc2ccc(N3CCOCC3)cc2)cc1", "Potency": "inactive"},
      {"compound": "CS(=O)(=O)N(CC(=O)Nc1ccc2c(c1)OCO2)c1ccccc1", "Potency": "inactive"},
      {"compound": "Cc1sc(C(=O)NCc2cccnc2)c2nc(C)n(CC(=O)NCc3cccnc3)c(=O)c12", "Potency": "inconclusive: 0.708 µM [inhibitor, full curve, poor fit]"},
      {"compound": "Cn1c(CC(=O)c2ccc(Br)cc2)[n+](C)c2ccccc21", "Potency": "inconclusive: 0.708 µM [inhibitor, full curve, poor fit]"},
      {"compound": "Cc1c(Cl)cccc1-n1ncc(C(=O)Nc2ccc(F)cc2F)c1C1CCN(C(=O)OC(C)(C)C)CC1", "Potency": "inactive"},
      {"compound": "COc1ccc(C(=O)Nc2ccccc2-c2nnn(CC(=O)NCc3ccco3)n2)cc1", "Potency": "inconclusive: 0.562 µM [inhibitor, full curve, poor fit]"},
      {"compound": "CC(=NCc1ccco1)c1c(O)n(C2CCCCC2)c(=O)[nH]c1=O", "Potency": "inconclusive: 1.58 µM [inhibitor, full curve, poor fit]"},
      {"compound": "O=C(Nc1nc(-c2ccc(F)cc2)cs1)c1ccc(N2C(=O)CCC2=O)cc1", "Potency": "inconclusive: 89.1 µM [inhibitor, partial curve, poor fit]"},
      {"compound": "O=C(COC(=O)C1CC(O)CN1S(=O)(=O)c1ccc(Cl)cc1)c1ccccc1", "note": "(centres undefined)", "Potency": "inconclusive: 10 µM [inhibitor, partial curve]"},
      {"compound": "Cc1cc(N2CCOCC2)nc2ccc(NC(=O)CCC(=O)N3CCN(c4cccc(C(F)(F)F)c4)CC3)cc12", "Potency": "inactive"},
      {"compound": "CCN(CC)C(=O)C1CCN(C(=O)c2oc3ccc(C)cc3c2C)CC1", "Potency": "inactive"},
      {"compound": "CCCCOC(=O)/C(=C\\c1ccc([N+](=O)[O-])o1)NC(=O)c1ccccc1", "Potency": "inconclusive: 1.58 µM [inhibitor, full curve, poor fit]"},
      {"compound": "CC(C)CC(c1nnnn1CC1CCCO1)N1CCN(Cc2ccc3c(c2)OCO3)CC1", "note": "(centres undefined)", "Potency": "inconclusive: 50.1 µM [inhibitor, partial curve]"},
      {"compound": "CNS(=O)(=O)c1ccc(C(=O)NCC(=O)NCCC(c2ccccc2)c2ccccc2)cc1", "Potency": "inconclusive: 89.1 µM [inhibitor, single point]"},
      {"compound": "Cc1cc(C#N)c(C)c(SCc2[nH]nc3c2C(c2ccccc2)C(C#N)=C(N)O3)n1", "note": "(centres undefined)", "Potency": "inconclusive: 100 µM [inhibitor, single point]"},
      {"compound": "Cc1cc(O)c(/C=N/OCc2ccc(Cl)cc2Cl)c(=O)o1", "Potency": "inconclusive: 22.4 µM [inhibitor, full curve, poor fit]"},
      {"compound": "O=c1cc(O)nc(SCc2ccccc2)n1-c1ccc(F)cc1", "Potency": "inactive"},
      {"compound": "Cc1c(Cl)cccc1NC(=O)CSC(C)c1nc2ccccc2c(=O)[nH]1", "note": "(centres undefined)", "Potency": "inactive"},
      {"compound": "Cn1c2ccccc2c2nnc(SC3CCOC3=O)nc21", "note": "(centres undefined)", "Potency": "inconclusive: 0.562 µM [inhibitor, full curve, poor fit]"},
      {"compound": "CN(CC(=O)NCCc1ccc(Cl)cc1)S(=O)(=O)c1ccc2c(c1)c(=O)n(C)c(=O)n2C", "Potency": "inconclusive: 0.316 µM [inhibitor, full curve, poor fit]"},
      {"compound": "COc1nccnc1NS(=O)(=O)c1ccc(NS(=O)(=O)c2ccc(NC(C)=O)cc2)cc1", "Potency": "inconclusive: 0.631 µM [inhibitor, full curve, poor fit]"},
      {"compound": "COc1cc(C(=O)NCCc2nc3ccccc3n2C)cc(OC)c1OC", "Potency": "inconclusive: 15.8 µM [inhibitor, partial curve]"},
      {"compound": "O=C(N/N=C/c1c[nH]c2ccccc12)c1cc(-c2ccc(-c3ccccc3)cc2)n[nH]1", "Potency": "inconclusive: 50.1 µM [inhibitor, partial curve, poor fit]"},
      {"compound": "Nc1nnc(SCC(=O)NC23CC4CC(CC(C4)C2)C3)s1", "Potency": "inconclusive: 50.1 µM [inhibitor, partial curve, poor fit]"},
      {"compound": "COc1ccc(CC(=O)Nc2cc(C)on2)cc1", "Potency": "inactive"},
      {"compound": "COC(=O)COC(=O)c1ccc(O)cc1", "Potency": "inconclusive: 79.4 µM [inhibitor, partial curve, poor fit]"},
      {"compound": "CCCc1nc(Nc2nc3ccccc3o2)nc(C)c1C(=O)OCC", "Potency": "inconclusive: 4.47 µM [inhibitor, full curve, poor fit]"},
      {"compound": "CN(C)C(=O)Oc1cc(OC(=O)N(C)C)cc(C(O)CNC(C)(C)C)c1", "note": "(centres undefined)", "Potency": "inconclusive: 4.47 µM [inhibitor, full curve] and inconclusive: 5.01 µM [inhibitor, full curve, poor fit]"},
      {"compound": "CC(=O)c1cccc(NC(=O)Cn2cc3c(n2)CCCC3)c1", "Potency": "inconclusive: 5.01 µM [inhibitor, full curve, poor fit]"},
      {"compound": "O=C(Cc1ccccc1)N1CCN(C(=O)c2cccs2)CC1", "Potency": "inconclusive: 35.5 µM [inhibitor, partial curve, poor fit]"},
      {"compound": "N#Cc1ccc2[nH]cc(CCO)c2c1", "Potency": "inconclusive: 89.1 µM [inhibitor, partial curve, poor fit]"}
    ]}
  ]
}
